Reference: PubChem BioAssay AID488969 (Vanderbilt High Throughput Screening Facility, 2010)
In all, about 110,000 compounds were measured (“z-score”: median about -0.1, highest 2% from about 2 on). The list shows a part of the results.

These compounds were tested against Metabotropic glutamate receptor 8 (Rattus norvegicus) (UniProt P70579) (assay: rat mGluR8 modulators via GIRK flux, primary screen, cell-based, thallium flux, HTS (AID 488969)). Conditions: HEK293 rat mGluR8, GIRK (G protein-gated inwardly rectifying potassium channel) thallium flux, FluoZin2; at 10 µM; stronger effect = higher value; submaximal glutamate (EC20) added with thallium.
UniProt P70579, sequence (P70579 whole entry, looked up): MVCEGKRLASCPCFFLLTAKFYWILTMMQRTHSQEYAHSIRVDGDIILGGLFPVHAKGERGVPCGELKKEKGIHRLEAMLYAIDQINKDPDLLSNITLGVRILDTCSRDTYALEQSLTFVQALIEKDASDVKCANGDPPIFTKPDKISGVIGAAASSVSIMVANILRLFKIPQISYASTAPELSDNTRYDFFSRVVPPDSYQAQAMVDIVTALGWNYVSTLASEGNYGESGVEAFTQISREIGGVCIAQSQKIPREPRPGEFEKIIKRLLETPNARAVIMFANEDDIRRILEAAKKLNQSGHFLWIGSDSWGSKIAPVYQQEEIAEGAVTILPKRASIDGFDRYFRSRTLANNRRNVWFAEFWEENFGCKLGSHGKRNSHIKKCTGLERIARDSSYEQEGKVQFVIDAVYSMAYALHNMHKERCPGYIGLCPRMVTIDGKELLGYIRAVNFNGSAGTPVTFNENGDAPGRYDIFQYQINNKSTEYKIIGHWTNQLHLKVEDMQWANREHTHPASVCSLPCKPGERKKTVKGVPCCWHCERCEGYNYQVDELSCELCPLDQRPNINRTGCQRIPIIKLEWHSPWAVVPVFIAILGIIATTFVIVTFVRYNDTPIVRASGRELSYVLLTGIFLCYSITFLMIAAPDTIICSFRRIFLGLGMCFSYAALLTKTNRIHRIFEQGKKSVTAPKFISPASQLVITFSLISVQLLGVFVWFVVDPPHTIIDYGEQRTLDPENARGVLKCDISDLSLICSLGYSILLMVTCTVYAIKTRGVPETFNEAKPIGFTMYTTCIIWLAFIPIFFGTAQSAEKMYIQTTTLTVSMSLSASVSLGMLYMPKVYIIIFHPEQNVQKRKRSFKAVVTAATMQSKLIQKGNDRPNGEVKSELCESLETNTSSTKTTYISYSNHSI
For `CCOc1ccc(/C(O)=C2\C(=O)C(=O)N(CCN(C)C)C2c2cccc(OC)c2OC)cc1Cl` (stereo not given), the z-score was -0.303.
`c1cn(CCCNc2ncnc3nc[nH]c23)cn1` gave a z-score of -0.153.
With `CCN1CCN(C(=S)c2ccc(Cl)c(Cl)c2)CC1` the z-score was -0.0912.
In the case of `CC(OC(=O)c1ccc2c(=O)n3c(nc2c1)CCCCC3)C(=O)Nc1ccc(F)cc1Cl` (stereo not given), the z-score is reported as -0.267.
In the case of `CCOC(=O)c1ccc(N/C=C/C(=O)c2ccc(OC)c(OC)c2)cc1`, the z-score is reported as -0.0592.
`O=C(CSc1nc2ccccc2n1CCc1ccccc1)N1CCOCC1` gave a z-score of 2.47.
`CC1(C(=O)Nc2nnc(SCc3ccccc3)s2)Cc2ccccc2C(=O)O1` (stereo not given) was tested, and the z-score was 0.224.
In the case of `O=C(Nc1ccc(Br)cc1F)C1CCN(c2nnc(-n3cccc3)s2)CC1`, the z-score is reported as -0.247.
Compound `Cc1ccc2c(c1)cc(CN(Cc1ccco1)C(=O)COc1ccccc1)c1nnnn12` has a z-score of -0.261.
For `CCOC(=O)N1CCN(S(=O)(=O)c2cc(C)c(C)cc2C)CC1`, the z-score was 0.457.
Compound `COc1cc(C2C(C#N)=C(N)N(c3cccnc3)C3=C2C(=O)CCC3)ccc1O` (stereo not given) has a z-score of -0.192.
`CCN1CCN(c2cc(N3CCc4ccccc4C3)c(F)cc2[N+](=O)[O-])CC1` showed a z-score of -0.033.
For `O=C(CCC(=O)c1cccs1)NCc1ccccc1`, the z-score was -0.0705.
`CC(C)c1cc(C(=O)N/N=C/c2cccnc2)n[nH]1` was tested, and the z-score was -0.116.
In the case of `Cc1cccc(C)c1NS(=O)(=O)c1ccc(NC(=O)c2ccc(Cl)c([N+](=O)[O-])c2)cc1`, the z-score is reported as 0.000906.
`COc1ccccc1NS(=O)(=O)c1cccc(C(=O)N/N=C(\C)c2ccc(-n3ccnc3)cc2)c1` showed a z-score of -0.46.
In the case of `COc1ccc(CNCCNC(=O)c2nonc2N)cc1OC`, the z-score is reported as 0.172.
Compound `O=C(CSc1nc(-c2ccco2)cc(C(F)(F)F)n1)NC1CCCCCCC1` has a z-score of -0.6.
Compound `COc1cccc(C(CC(=O)Nc2cccc3ccccc23)NC(=O)c2ccccc2)c1` (stereo not given) has a z-score of 2.17.
In the case of `Cc1ccc(Cn2c([N+](=O)[O-])cnc2C)cc1`, the z-score is reported as -0.107.
Compound `c1ccc(CSCc2nc3ccccc3[nH]2)cc1` has a z-score of 0.074.
With `Cc1ccccc1C(=O)N(C)Cc1ccccc1` the z-score was -0.0368.
`Cn1nc(OC(=O)Nc2ccccc2)cc1C(F)(F)F` was tested, and the z-score was -0.0183.
`COC(=O)c1c(C)oc2ccc(N(C(=O)c3ccncc3)S(=O)(=O)c3ccccc3)cc12` showed a z-score of -0.409.
`CCO/N=C(\C)c1c(O)cc(C(C)C)n(-c2ccccc2)c1=O` showed a z-score of -0.078.
Work on `CSc1ccc(C(=O)/C=C/c2ccc(N)cc2)cc1` yielded a z-score of -0.17.
With `O=[N+]([O-])c1cc(C(F)(F)F)ccc1Oc1cccnc1[N+](=O)[O-]` the z-score was -0.411.
For `O=C1CC(NCc2cccs2)C(=O)N1c1ccc(Cl)cc1` (stereo not given), the z-score was -0.338.
Compound `Cc1ccc2oc(=O)c3cnn(CC(=O)N(CCN(C)C)Cc4ccco4)c3c2c1` has a z-score of -0.171.
`O=C(NCc1ccccn1)c1cn(-c2ccccc2)nc1-c1ccc(Cl)cc1` gave a z-score of -0.541.
For `CC(=O)c1cccc(NC(=O)COC(=O)COc2c(Cl)cc(Cl)c3ccc(C)nc23)c1`, the z-score was 1.42.
`Cc1cccc(Cn2c(C(C)(C)C)cc3cccnc32)c1` was tested, and the z-score was 0.162.
Work on `N=C1c2ccccc2CN1NC(=O)c1cccc(S(=O)(=O)N2CCOCC2)c1` yielded a z-score of -0.0374.
In the case of `Cc1ccccc1NC(=O)COC(=O)Cc1cccc(C(F)(F)F)c1`, the z-score is reported as -0.133.
For `CCNc1nc(NC(C)C)nc(ON=C(C)C)n1`, the z-score was 0.566.
`O=C(NC1CCCCCC1)c1cc2n(n1)C(C(F)(F)F)CC(c1ccco1)N2` (stereo not given) was tested, and the z-score was -0.546.
With `CN1CCN(CCCNC(=O)CCCOc2cc(=O)n(C)c3ccccc23)CC1` the z-score was -0.144.
`COC(=O)C(/C=N/OCc1ccc([N+](=O)[O-])cc1)NC(=O)c1ccccc1` (stereo not given) showed a z-score of -0.745.
Compound `N#Cc1c(NC(=O)CCN2C(=O)c3ccccc3C2=O)oc(-c2ccccc2)c1-c1ccccc1` has a z-score of -1.42.
`O=C(CCl)Nc1cccc(-c2cnc3ccccc3n2)c1` was tested, and the z-score was -0.282.
With `COc1ccc(NS(=O)(=O)c2ccc(OC)c3ccccc23)cn1` the z-score was -0.0858.
`COc1ccc(OCC(=O)OC2CCN(C)CC2)cc1` showed a z-score of 0.0181.
For `CC(C)COc1ccc(CNC(=S)NCc2ccccc2)cc1`, the z-score was 0.59.
`Cc1ccccc1C(O)c1ccncc1` (stereo not given) showed a z-score of 0.19.
`CC(/C=C(\NC(=O)c1ccccc1)C(=O)N=Nc1c(O)[nH]c2ccc(C)cc12)=C\c1ccccc1` was tested, and the z-score was -0.172.
Work on `COc1ccc(CC(=O)n2nc(-c3cccnc3)nc2N)cc1` yielded a z-score of 1.36.
For `C=CCn1c(C)cc(C(=O)CSc2nnc(-c3cccc(S(=O)(=O)N(CC)CC)c3)o2)c1C`, the z-score was -0.096.
`COc1cccc(C(O)c2nc3ccccc3n2C(C)C)c1` (stereo not given) was tested, and the z-score was -0.377.
`Cc1ccc(C(=O)N/C(=C/c2ccco2)C(=O)OCN2C(=O)c3ccccc3C2=O)cc1` gave a z-score of 0.551.
`CN(C(=O)COc1cc(=O)n(C)c2ccccc12)c1ccc(Br)cc1` was tested, and the z-score was -0.219.
`Cc1oc(-c2ccc(F)cc2)cc1-c1nn2c(-c3ccco3)nnc2s1` was tested, and the z-score was -0.427.
With `Cc1ccc(/C=N/NC(=O)c2cccs2)o1` the z-score was 0.639.
Work on `CCCCOCCCNC(=O)COc1ccccc1` yielded a z-score of -0.237.
Work on `CC(C)CCNC(=O)c1nnc(Cc2ccc(Cl)cc2)o1` yielded a z-score of 0.102.
With `Cc1ccc(S(=O)(=O)NC(Cc2c[nH]c3ccccc23)C(=O)O)cc1` (stereo not given) the z-score was -0.0187.
Compound `Cc1ccc(C)c(OCC(O)CN2CCC(CN3C(=O)c4cccc5cccc(c45)C3=O)CC2)c1` (stereo not given) has a z-score of -0.000796.
Work on `CC1=NN(c2nc(-c3ccccc3)cs2)C(=O)C1` yielded a z-score of -0.297.
For `Cc1ccc(NC(=O)c2ccncc2)cc1[N+](=O)[O-]`, the z-score was -0.142.
`Cc1ccc(S(N)(=O)=O)cc1NC(=O)/C=C/c1cccs1` gave a z-score of -0.204.
`O=c1ccc(NS(=O)(=O)c2ccc(Cl)cc2)cn1Cc1ccc(Cl)c(Cl)c1` showed a z-score of -0.0823.
For `O=C(O)c1ccc(NC(=S)Nc2ccccc2)cc1`, the z-score was -0.031.
For `C/C(CC(=O)Nc1ccccn1)=N\NC(=O)c1ccc2ccccc2c1`, the z-score was -0.53.
`CC(C)N(Cc1nc(-c2ccccc2)no1)C(=O)CCCN1C(=O)c2ccccc2C1=O` gave a z-score of -0.305.
In the case of `Cc1ccc(-c2nnc(SCC(=O)n3c4c(c5ccccc53)CCCC4)o2)cc1`, the z-score is reported as 0.0821.
Work on `Cc1ccnc(NS(=O)(=O)c2ccc(N3C(=O)c4ccccc4C3=O)cc2)n1` yielded a z-score of 0.0228.
`O=C(N/C=C\c1ccccc1)NCc1ccc(Cl)cc1` gave a z-score of 0.197.
In the case of `NS(=O)(=O)c1ccc(CCNC(=O)CNC(=O)C2CCCCC2)cc1`, the z-score is reported as -0.063.
`COC(=O)c1sccc1NC(=O)c1ccc(OC)cc1OC` gave a z-score of -0.199.
`COc1ccc(C2(C(N)=O)CCCCC2)cc1OC` gave a z-score of -0.217.
`Cc1ccccc1Nc1nc(N)nc(CSCc2c(C)noc2C)n1` was tested, and the z-score was -0.284.
In the case of `COc1ccc(C(=O)NCC(O)COc2ccc(C(C)(C)C)cc2)cc1[N+](=O)[O-]` (stereo not given), the z-score is reported as -0.158.
`CCC(CC)c1nc(C#N)c(NCc2ccccc2)o1` showed a z-score of -0.971.
`CCOC(=O)C1=C(CSc2nccn2C)NC(=O)NC1c1ccc(OC)cc1` (stereo not given) showed a z-score of -0.026.
With `CC1(C)Oc2ccc3ccc(=O)oc3c2/C(=C/Nc2ccccc2)C1=O` the z-score was -0.126.
Work on `CCC(=O)N1CCN(c2ccc(NC(=O)c3c(F)c(F)c(OC)c(F)c3F)cc2)CC1` yielded a z-score of 0.0901.
`COc1cccc(/C=C(/C(=O)OCC(=O)NC2CCCC(C)C2C)c2ccccc2)c1` (stereo not given) was tested, and the z-score was -0.279.
`CC(/C=C1\SC(=S)N(CC(=O)N2CCN(c3ccccc3)CC2)C1=O)=C\c1ccccc1` was tested, and the z-score was 0.122.
Work on `CCCCN(CC)CCCNC(=O)Cn1nc(Cc2cccnc2)c2ccccc2c1=O` yielded a z-score of 0.275.
`COCCN(Cc1cc2cc3c(cc2n2nnnc12)OCO3)C(=O)c1ccccc1F` was tested, and the z-score was 0.896.
`NS(=O)(=O)c1cc(C(=O)NCCOc2ccccc2)c(Cl)cc1Cl` showed a z-score of -0.133.
For `O=C(CSc1nnc(-c2ccccc2)o1)N1CCN(c2ccccc2)CC1`, the z-score was -0.148.
Work on `CCN(CC)C(=O)CSC1=N/C(=C/c2ccco2)C(=O)N1c1ccc(OC)c(Cl)c1` yielded a z-score of 0.509.
Compound `Cc1ccc(-c2nc3ncccc3o2)cc1NC(=O)COc1ccccc1` has a z-score of 0.0918.
`O=C(CCCCn1c(=O)c2ccccc2n(Cc2ccc(Cl)cc2)c1=O)NCc1ccco1` gave a z-score of 0.768.
Work on `CCCCNC(=O)Nc1c(C(=O)OC)[nH]c2ccc(C)cc12` yielded a z-score of -0.153.
With `CC(NC(=O)/C(C#N)=C/c1cn[nH]c1-c1ccccc1)c1ccccc1` (stereo not given) the z-score was -1.15.
Work on `Cn1c2c(c(=O)n(C)c1=O)C(C(F)(F)F)(C(F)(F)F)N=C(c1ccc(Cl)cc1)N2` yielded a z-score of -0.284.
For `O=C(/C(=N/N=C/c1ccc(O)c(O)c1)c1ccccc1)c1ccccc1`, the z-score was -0.141.
`CCOc1ccc(NC(=O)CCS(=O)(=O)c2ccc3c(c2)CCCN3C(C)=O)cc1` showed a z-score of 0.801.
In the case of `Cc1ccc(S(=O)(=O)Cn2nnnc2CN2CCOCC2)cc1`, the z-score is reported as -0.0838.
Work on `COCn1ccnc1C(O)(c1ccc(OC)cc1)c1ccc(OC)cc1` yielded a z-score of -0.182.
Work on `O=[n+]1c2c(n([O-])c3cc(Cl)ccc31)CCCC2` yielded a z-score of -0.371.
`Cc1cccc(NC(=O)c2cc(NC(=O)c3ccccc3)ccc2N2CCCCC2)c1` was tested, and the z-score was -0.201.
For `CCN(c1ccc2c(c1)OCO2)S(=O)(=O)c1cc(Br)cc2c1N(C(=O)C1CC1)CC2`, the z-score was -2.92.
`COc1ccc(C2=C(C=Nc3c(C)n(C)n(-c4ccccc4)c3=O)C(c3ccccc3C)c3ccccc3O2)cc1OC` (stereo not given) was tested, and the z-score was 0.339.
`COc1cccc(N(CC(=O)Nc2cccc(N(C)S(C)(=O)=O)c2)S(C)(=O)=O)c1` showed a z-score of -0.0275.
In the case of `Cc1sc2nc(CN(Cc3ccccc3)C(=O)NC3CCCCC3)[nH]c(=O)c2c1C`, the z-score is reported as -0.145.
For `CCOC(=O)c1cnc2ccc(C)cc2c1Sc1ccc(F)cc1`, the z-score was -0.262.
`Cc1ccc(Nc2nc(-c3sc(NC(=O)c4ccco4)nc3C)cs2)cc1` was tested, and the z-score was -0.13.
`CC(=O)Oc1cc2c(C(=O)NCCN3CCOCC3)c(C)oc2c2ccccc12` was tested, and the z-score was 0.772.
For `O=C(c1ccco1)N1CCN(Cc2nc3ccc([N+](=O)[O-])cc3c(=O)n2-c2ccccc2F)CC1`, the z-score was -0.099.
`COc1ccccc1NC(=O)C1C2C=CC3(CN(Cc4cccnc4)C(=O)C13)O2` (stereo not given) was tested, and the z-score was 1.76.
Compound `CCc1ccccc1N=C1S/C(=C/c2ccccc2OCC(=O)N2CCOCC2)C(=O)N1C` has a z-score of 0.0462.
`Cc1ccc(S(=O)(=O)Nc2ccc3nc(N)sc3c2)cc1` showed a z-score of 0.381.
Work on `CC(=O)Nc1cccc(NS(=O)(=O)Cc2ccc(Cl)cc2)c1` yielded a z-score of 0.0926.
